# Results published in the RNAGym collection of RNA variant scans (doi:10.1093/nar/gkz1192).
# The source gives no read counts; variants with many changes may rest on few reads.
# B1: CPEB3 Ribozyme (parent)
# chain: UAACAGGGGGCCACAGCAGAAGCGUUCACGUCGCAGCCCCUGUCAGAUUCUGGUGAAUCUGCGAAUUCUGCUGUAUAUCUC
# Variants of: B1
# Test: self-cleavage, relative activity (ratio to wild type); higher = more cleavage; in vitro, sequencing
# Procedure, shortened: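 Barcoded CPEB3 ribozyme mutants, produced by rounds of error-prone PCR, self-cleaved while being transcribed with T7 RNA polymerase for 5 hours at 37°C and during a subsequent 15 min DNase I step before EDTA was added. Sequencing of template-switched cDNA on Illumina gave cleaved and total reads, and DNA sequencing assigned barcodes to variants. Each variant's relative activity is its cleaved/total read fraction divided by the unmutated ribozyme's fraction, averaged across three batches. A variant needed a minimum of 5 reads.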
row,Variant,self-cleavage
1,A3G U43A U58C,0.47
2,C4U G9U A15G A18U A64C,0.07
3,A3G U48C U72C,0.89
4,A3G U54C U60C U80C,0.56
5,C4U A35G A56U U66C,1.02
6,A3U A15G A20G U60C,0.25
7,A3U G8C U26C A64U U72C,0.07
8,C4U A18G U26A A47G U58C U72C U76C,0.61
9,A3U G8U A13U A18G U72C,0.1
10,C4A C32A A45G,0.6
11,C4U A13G A15G U25C A35U U48G,0.09
12,A3G U43C U72C U78C,0.17
13,A3U A13U A57G C79U,1.22
14,A3U A13U A28G A35G U51A U58A C81G,0.75
15,A3G G52U A56U,0.76
16,C4A A13U U58C G61A A64G U69A A77G,0.23
17,A3G U54A C68G A77U,0.72
18,A3U A13G A28C U54C U66C,0.21
19,C4U U58C A64G U76A,0.67
20,A3U C40G U51C U60A A77U,0.14
21,A3U A13U A20G U25C,0.1
22,A3G U43C U58A,0.26
23,C4A U25C U66C,0.66
24,A3U A18G U26A,0.54

row,Variant,self-cleavage
1,A3U A5C G24C U26C A45G U66C,0.07
2,A3U A28U C59A A64U,0.16
3,A3U A15U A18G A56U,0.2
4,A3U A5G C79U,0.97
5,C4U C23U U26C A35U U43C U49C,0.2
6,A3G U51A U60C,0.68
7,C4A A5U U25C A45U G53A A56G U60A,0.25
8,A3G U25C A28G G33C C68A U78A,0.05
9,A3U G8U A18U C39U U41C A75G U78C,0.04
10,A3G U51C A64G A65G U78C,0.19
11,A3U A18G U26C U41C U43C A64G U67A,0.05
12,A3U A5G U74C,0.98
13,A5C A20U C37U A57G U67C U69A U76C,0.14
14,A3G U41G U58A U69C U74A,0.09
15,A3U C14A A18U U43C A56U U66C,0.28
16,A3G U31C U60C A64G U67C U78C,0.14
17,A3G U26A A77G,0.98
18,A3U A13G A15C A18G A21G C23U A45G,0.17
19,A3G U25C A28G A57U U76A,0.05
20,C4U U25C U67A,0.12
21,A3U A5G G24C U69C C79A U80C,0.14
22,A3G U49A U51A A57U,0.12
23,A3G U54G U58C U60C,0.27
24,A3U G19C C40U U66A U69A,0.06

row,Variant,self-cleavage
1,A3G U41A A57G,0.25
2,A3U A5U C11A U41C A47G,0.36
3,A3U U25C U43A A57C,0.31
4,A3G U25C U31C C39A U48C U51G U72C,0.1
5,A5C A15G U48C U60C U72G G73A,0.11
6,A5C A18U U54C U72C,0.24
7,A3U U31C A47G U51A U60C,0.16
8,C4U U25C C29U U51C A56U G61A A77G,0.09
9,A3U U31C U72C C79U,1.09
10,A5C A13G A15U A47G U60C A64G U76G,0.32
11,A3U A13U U25C G33A U51C C62U A77C,0.2
12,A3U A77G U78C,0.71
13,A3U U25C U43C,0.4
14,A3U C12U A13G A20G U25A U26C A56G,0.05
15,C4U A15U U31A U41A A64G U69C,0.24
16,A5C A20G U25A C39U G61C,0.09
17,C4A U31C C34U U58C,0.09
18,A3G U49G A57G A64G A65G,0.2
19,A3U U72C U80A,1.26
20,A3G U43C U51C,0.4
21,A3U C29A C34A A56U,0.26
22,A3U A13U U41A U78C,0.11
23,A5C A18G C29U A56G,0.09
24,A3U A5G A15G U54C U60C,0.19

row,Variant,self-cleavage
1,A3U C11A A15U G22A A64G,0.2
2,C4A A13U U58C A64G A77G,0.91
3,C4U A5U A21G U26A G70A,0.33
4,A3U A20G U41A,0.33
5,A3G U41C A45G A56U,0.63
6,C4U C11G U41A,0.45
7,C4U U31C A35U U58C C62A,0.15
8,A3G U26C G46A U54C U72A,0.05
9,A3G U25C U41A A45G U80A,0.12
10,A5C A15U U26C U66C G70A U72C,0.22
11,C4U A15G C17U C40G A45G,0.33
12,A3G U26C U31C U48A,0.15
13,C4U U41C A47G U48C U67C,0.12
14,A3G U41C U69C A75U,0.5
15,C4U A13G U48G U72C,0.54
16,A3U A56U U69C U72C,0.43
17,C4U U58C U74A,1.14
18,A3U G30C U41C U60C A64U G73U,0.17
19,A3U U25A A64U U72A,0.1
20,A3G G63A U66C,0.6
21,A3G U51C A65G,0.85
22,A3G U31A U54A,0.74
23,A3U U31C U41C U51A,0.9
24,A3U U41C A45G A77G,1.02

row,Variant,self-cleavage
1,A3U A20G A45C,0.45
2,A3G U49A U51A A57G A65G,0.08
3,C4A A45G U80C,1.02
4,C4A U31C U41C U48C A56U A64G U74C,0.12
5,A3G U25C A47G U72G,0.07
6,C4A U58C U80A,0.93
7,C4A U26A U51A U54A,1.16
8,A3U A15U G30U A45U U78C,0.22
9,C4G G9A A20U,0.06
10,A3G U26C U69C A77G,0.32
11,C4U G24C U49G U76C,0.19
12,A3U U25C C79U,0.56
13,C4G U54A A77G,1.18
14,A3U U43C U49C,0.33
15,A3U A5G G33A G42A,0.39
16,A3U C39G U48G A56U A65G,0.09
17,A5C A18G U26C U60A,0.12
18,C4G A21G G24A C27A U31A U67A U72C,0.06
19,A3G U54C U67C,0.32
20,A3G U54C A56G G73U,1.24
21,A3G U41A U49C A75G,0.3
22,C4G A18G U31A A35U U60A U66A,0.14
23,A3U A5G U26C A56G,0.41
24,A3U A13G U58A U78C,0.46

row,Variant,self-cleavage
1,C4G A13G A28C C37U U41A,0.3
2,A3U A5G A13G U74C,0.34
3,A3G U25C C27G U43A,0.09
4,A3U G7A A65U U78C,0.14
5,A3U A15U G63A U76C U80C,1.16
6,A3U U60A U72A U80C,0.75
7,A3G U58A U69C,0.21
8,C4G A5G A20G U58C,0.13
9,A3G U43A A47G,1.08
10,C4U A18G U67C,0.34
11,A3U G24A U25C A57G,0.1
12,A3U A35U A64U,0.33
13,A3G U26C U51A A57G U76A,0.09
14,A5C A13U C27A A64G U74G U78A,0.08
15,A3U C11A U54A U69C,0.21
16,A3G U31C U60C A64G,0.19
17,C4U A35U U49C U54C U66C,0.19
18,A3U U49C C68U U78C,0.26
19,C4U G22A U26C,0.46
20,C4U C11U U48C U51A,0.1
21,A3U G70A A75G,0.29
22,A3G U51A U66A U80C,0.28
23,A3U A5G U26C G73A U78A,0.42
24,A5C A20G G22U U74A,0.32

row,Variant,self-cleavage
1,C4U A21G U41C U43G,0.1
2,C4A A15G A45G U54G U69C,0.18
3,A3U G42A U67C U72C A75G U78G,0.13
4,C4A G8A C71U U72C,0.13
5,A3G U25C A28U,0.69
6,A3U A18U U51C A56G,0.39
7,A3U G36A A77G,0.35
8,C4U A18G U60A,0.74
9,A3U C29U U72C,0.76
10,C4U C11G A21G U41A,0.39
11,A3G U26A C62G,0.2
12,A3U A5G G7U A18G A28U C44U,0.27
13,A3G U43C C79A,0.52
14,A5C A15G A45U U58C,0.47
15,A3G U26A A57G U69C,0.21
16,A5C A18G C37G U48C,0.08
17,A3G U41C A65G C71G U74C C81A,0.37
18,A3U C39A U60A,0.39
19,A3G U31C U48A,0.35
20,A3U C11G A20G G24A A28G U31A C32U,0.06
21,A3G U51A A57U,0.38
22,A3G U31C A45G U80A,0.49
23,C4G C17G A28C G63A,0.24
